Assay results as given in PubChem BioAssay AID1508623 (National Center for Advancing Translational Sciences (NCATS), 2021).
Screen size: about 48,000 compounds; about 450 (0.94%) were called active. About 19% were inconclusive and are not listed. Calls follow the shape of the dose curve; as a rule, active = well fitted inhibition curve with a large enough effect; inconclusive = small, poorly fitted or top-dose-only effect; inactive = no such curve, though single readings can be large or run the other way. This is one part of the list.

assay: Primary qHTS for Identification of Small Molecule Inhibitors of Huntingtin Promoter Activity; conditions: HEK293 HTT promoter firefly luciferase reporter (activity 0% = vehicle and -100% = no light), 24 h; series mostly up to 57.5 µM; activity change, negative = inhibition: at the top concentration; also: nearly all actives have a fitted effect of over 50% in size
Summary of the method: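 Quantitative HTS used concentration series of up to 57.5 uM final on HEK293 luciferase reporter cells, 24 h at 37 degrees C. Readout was Dual-Glo firefly luminescence.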

Activity change, negative = inhibition, inactive:
COCCNC(=O)Cn1ncc2c(C)n(Cc3ccc(C)cc3)c(C)c2c1=O -20.1%, Cc1ccc(C)c(CNC(=O)c2cnc3sc(N4CCCC4)nn3c2=O)c1 -18.7%, CCOc1ccc(C(=O)c2cn(Cc3ccc(F)cc3)c3ccc(F)cc3c2=O)cc1 -15.8%, Cc1ccc(CN(Cc2ccco2)C(=O)c2oc3ccc(C)cc3c2C)cc1 -15.7%, CSc1ccc(C2c3c(oc4ccccc4c3=O)C(=O)N2CCCN2CCOCC2)cc1 (stereo not given) -10.2%, CC(C)(C)C(=O)OC1=CN(Cc2ccccc2)S(=O)(=O)c2ccccc21 -14%, CCc1ccc(NC(=O)CSc2nc3ncccc3[nH]2)cc1 -17.7%, Cc1cccc(N(C)C(=S)Oc2ccc3ccccc3c2)c1, CCOc1ccc(/C=C/C(=O)Nc2sc3c(c2C(=O)OC)CCC3)cc1 -15.1%, COc1ccc(C)cc1NC(=O)Cn1cc(S(=O)(=O)Cc2ccccc2Cl)c2ccccc21 -17.5%, CCOc1cc2c(cc1OCC)C(c1c(F)cccc1Cl)CC(=O)N2 (stereo not given) -25.8%, CCc1ccccc1NC(=O)c1nc(-c2ccncc2)no1 8.79%, Cc1sc2c(c1C)c(=O)n(-c1ccc(Cl)cc1)c(=O)n2Cc1c(F)cccc1Cl -13.2%, COc1cc(C2C(C(=O)Nc3ccccc3)=C(C)Nc3nc(SCc4ccccc4F)nn32)cc(OC)c1OC (stereo not given) -18.2%, CC1CCN(S(=O)(=O)c2cc(C(=O)Nc3ccc(Br)cc3F)n(C)c2)CC1 -34.1%, Cc1ccc(-c2cc(C(=O)N3CCN(c4ccccc4)CC3)c3ccccc3n2)cc1C 14.6%, Cc1ccc(Cn2c(CCCNC(=O)C3CCCCC3)nc3ccccc32)cc1 -24.3%, O=C(Cn1ncc2c(Cl)cccc21)NCc1cccc(Br)c1 -4.46%, CCN1CCCC1CNC(=O)c1cc(S(N)(=O)=O)ccc1OC (stereo not given) -5.27%, Cc1ccc(N2CC(NC(=O)C(=O)c3c[nH]c4ccccc34)CC2=O)cc1 (stereo not given) -26.5%, CC(C)CCNC(=O)c1ccc2c(c1)N(Cc1ccccc1F)C(=O)c1ccccc1S2=O (stereo not given) -25.2%, COc1ccccc1OCC(=O)NCC1(N(C)C)CCCCC1 73.7%, O=C(CSc1nc(=O)n(Cc2cccnc2)c2c1CCC2)Nc1ccc(F)cc1F -18.7%, N#C/C(=C\c1c(Oc2ccc(Br)cc2)nc2ccccn2c1=O)c1nc2ccccc2s1 11.3%, CC(=O)N1CCc2cc(Br)cc(S(=O)(=O)N3CCN(c4cccc(C)c4)C(C)C3)c21 (stereo not given) -0.526%, COc1ccc(N2CCN(C(=O)CS(=O)(=O)c3cccc4nsnc34)CC2)cc1 -30%, CCCCN1CCc2nc(N3CCN(C)CC3)ncc2C1 -5.45%, COc1ccc(CCN2CCC(CNC(=O)c3cnn(-c4ccccc4)c3C3CCN(C(=O)OC(C)(C)C)CC3)CC2)cc1 -12%, Cc1nn(C(C)C(=O)NC2CCC(C)CC2)c(=O)c2cc3sccc3n12 (stereo not given) -0.12%, COc1ccccc1N1CCN(C(=O)c2cn(C)c3ccc(S(=O)(=O)N4CCOCC4)cc3c2=O)CC1 -15.5% [at 11.5 µM], COc1ccc(Cl)cc1NC(=O)c1cc(C)nn1-c1ccccc1 -21.4%, COc1ccc(OC)c(S(=O)(=O)N2CC=C(c3c(C)n(CC(=O)N4CCCC4)c4ccccc34)CC2)c1 0%, O=S(=O)(c1ccc(Cl)cc1)c1nnn2c1nc(N1CCCCC1)c1sccc12 -1.57%, Fc1ccccc1-n1ncc2c1ncn1nc(Cc3ccccc3)nc21 33.7%, Cc1cn(C)c(CC(=O)N2CCN(c3ccccc3F)CC2)c1C(=O)O -11.6%, COc1ccc(-c2nc3sc(CCNC(=O)c4ccccc4C)c(C)n3n2)cc1 -21.8%, Cc1ccc2c(c1)-c1c(c(C(=O)N3CCN(c4cc(Cl)ccc4C)CC3)nn1C)CS2 -8.93%, CC(CNC(=O)CCS(=O)(=O)c1ccc2c(c1)oc(=O)n2C)c1ccccc1 (stereo not given) -4.26%, Cc1cccc(NC(=O)N2CCC(CN3CCOCC3)CC2)c1C 3.12%, Cc1cccn2c(=O)c3cc(C(=O)N(Cc4ccccc4)C(C)C)sc3nc12 -3.71%, CCCCN(C)CCNC(=O)c1ccc2c(c1)NC(=O)CN2 -10.5%, Cc1c(C(=O)NCCc2ccc(S(N)(=O)=O)cc2)sc2nc3n(c(=O)c12)CCCC3 6.09%, Cc1cccc(Cn2c(C)c(CNC3CCCCC3)c(C(=O)O)c2C)c1 -15.2%, Cc1cc(Cl)ccc1NC(=O)C1CCN(c2nnc(-n3c(C)ccc3C)s2)CC1 -28.1%, CCOC(=O)c1ccccc1NC(=O)N1CCOc2ccc(Cl)cc21 -27.2%, CCc1ccccc1NC(=O)CSc1nc2c(oc3ccccc32)c(=O)n1-c1ccccc1F -29.9%, COc1ccc(-c2ccc3cc(C(=O)O)ccc3c2)cc1C12CC3CC(CC(C3)C1)C2, Cc1ccc(NC(=O)C(=O)NCC(c2cccnc2)N2CCN(Cc3ccccc3)CC2)cc1 (stereo not given) -20.3%, Cc1cc(C)c(NC(=O)CSc2nc(-c3ccc(F)cc3)nc3c2Cc2c(CO)cnc(C)c2O3)c(C)c1 -11.8%, CCCCCCCCCCCC(=O)[O][Sn]([CH2]CCC)([CH2]CCC)[O]C(=O)CCCCCCCCCCC 11.4%, COc1ccc(S(=O)(=O)N(CC(=O)Nc2cccc(C)c2)c2ccc(C)cc2)cc1OC -29.5%, COc1ccccc1CNC(=O)c1ccc(N2CCCC2)c(NC(=O)NCc2ccc(F)cc2)c1 -27%, CCCCSCCCNC(=O)C1CCN(Cc2nc(-c3cccc(Br)c3)oc2C)CC1 -2.44%, O=C(Cn1ncc2c3ccccc3n(Cc3ccccc3F)c2c1=O)N1CCCCC1 12.3%, CCOc1ccc(CCNC(=O)c2[nH]c3cc(OC)ccc3c2Sc2ccccc2)cc1OCC -29.9%, CC(C)CN(CCCNC(=O)CN1N=C(c2ccccc2)CCC1=O)CC(C)C -8.09%, COc1ccc(N2CCN(c3ccc(-c4nc(-c5cccc(C)c5)no4)cc3[N+](=O)[O-])CC2)cc1 25.1%, O=C(NCCC1=CCCCC1)c1ccc2c(c1)N(Cc1cccc(Cl)c1)C(=O)c1ccccc1S2(=O)=O -45.5%, CCOc1ccc(NC(=O)Cn2c(=O)cc(C)c3c(C)nn(-c4cccc(Cl)c4C)c32)cc1 -1.17%, CCOc1ccc(C(=O)N2CCN(CCc3ccccn3)CC2)cc1 -12.2% [at 11.5 µM], Cn1c(=O)[nH]c(=O)c2c1nc1n2CCN1c1ccccc1 1.51%, CCOc1ccc(S(=O)(=O)c2cn(Cc3ccc(OC)cc3)c3ccc(F)cc3c2=O)cc1 -19.5%, CCOC(=O)CC(NC(=O)CCc1c(C)nc2ncnn2c1C)c1ccc(OC(C)C)cc1 (stereo not given) 0.587%, Cc1ccccc1CSc1nc2cccnc2n1Cc1ccc(C(=O)NC2CC2)cc1 -5.5%, CCOC(=O)c1ccccc1NC(=O)CSc1cn(CC(=O)N2CCOCC2)c2ccccc12 -10.7%, COc1ccc(CNC(=O)C2CCC(CNS(=O)(=O)c3cccs3)CC2)cc1 (stereo not given) -9.81%, Cc1ccc(-c2nc(S(=O)(=O)c3ccc(C)cc3)c(N3CCCCCC3)o2)cc1 -13.9%, Cc1ccc(N2CCN(S(=O)(=O)c3nnc(NC(=O)c4ccc(C(C)C)cc4)s3)CC2)cc1 -2.31%, CCOc1ccc(NC(=O)CN2C(C(=O)OC)=C(c3ccccc3)c3cc(Cl)ccc3S2(=O)=O)cc1 -2.6%, Cc1cc(=O)[nH]c2nnc(SCc3ccc(Cl)cc3)n12 -15.2%, COC(=O)C1=C(c2ccccc2)c2ccccc2S(=O)(=O)N1CC(=O)Nc1ccc(OC)cc1OC -21.9%, O=C(NCc1ccccc1)C1CCN(S(=O)(=O)c2ccc3[nH]c(=O)ccc3c2)CC1 8.92%, Cc1cccc(N(C)S(=O)(=O)c2c(C(=O)N3CCCCCC3)c(C)n(C)c2C)c1 -0.535%, Cc1cc2nc(-c3cccc(NC(=O)COc4ccc(Cl)c(C)c4)c3)oc2cc1C 41.3%, Cc1ccc(CNC(=O)CN2CCN(Cc3ccc(F)cc3)C2=O)cc1 -4.89%, COc1ccccc1-c1cc(NC(=O)COc2ccc(C)c(C)c2)n(-c2ccccc2)n1 -13.1%, COc1ccccc1NC(=O)C1CCN(S(=O)(=O)c2cn(C)cn2)CC1 -15.5%, CCOc1ccc(CCNC(=O)c2cnc3sc(N4CCCCCC4)nn3c2=O)cc1 0.0464%, COc1ccc(OC)c(NC(=O)CN2CCCN(Cc3cc(C)ccc3C)S2(=O)=O)c1 -2.8%, Cc1cccc2c1-c1sc(C(=O)N3CCN(c4cccc(Cl)c4)CC3)cc1CO2 -12.6%, COc1ccc(-c2cc(C(F)(F)F)nc(SCC(=O)NCc3ccc(Cl)cc3)n2)cc1 -4.73%, CC1=C(C(=O)Nc2ccc(F)cc2F)C2(CCCCCC2)OC1=O -8.93%, O=C(CN1C(=O)C2(SCC(=O)N2c2ccc(F)c(F)c2)c2ccccc21)Nc1ccccc1F (stereo not given) -13.8%, O=C(CSc1nccn1Cc1ccc(Cl)cc1)NCc1ccccc1 -14.6%, COc1ccccc1CNC(=O)C(CC(C)C)N1Cc2ccccc2C1=O (stereo not given) -29.3%, Cc1ccc(C)c(C(=O)COC(=O)CCCC(=O)Nc2cc(C(F)(F)F)ccc2Cl)c1 -15.2%, O=S1(=O)c2ccccc2N(Cc2ccc(Cl)cc2F)c2ccccc21 2.58%, CN(C)S(=O)(=O)c1ccc2c(c1)c(=O)c(C(=O)N1CCN(c3cccc(Cl)c3)CC1)cn2C 2.41%, COc1ccc(OC)c(NC(=O)CSC2=Nc3ccccc3C3=NC(CCC(=O)NCc4ccco4)C(=O)N23)c1 (stereo not given) -8.85%, CCOC(=O)c1ccc(NC(=O)CN(c2ccc(C)cc2)S(=O)(=O)c2ccc(OC)cc2)cc1 -13.5%, CCC(=O)Nc1nnc(S(=O)(=O)N(C)Cc2ccc(Cl)cc2)s1 -0.815%, CCOc1ccccc1NC(=O)CSC1=Nc2ccccc2C2=NC(CC(=O)NC3CCCCC3)C(=O)N12 (stereo not given) -14.7%, CCOc1ccc(-c2nc3c(c(SCC(=O)N4CCCCC4)n2)Cc2cc(C)ccc2O3)cc1 -18.2%, COc1ccc(N2CCN(CCCNC(=O)Nc3ccccc3Cl)CC2)cc1 -10.2%, COc1ccc(CCNC(=O)CN(c2ccc(C)cc2)S(=O)(=O)c2ccc(OC)cc2)cc1 -18.4%
